According to the supplement of paper PMC11417369:
This is one part of the list.

test system: PfHDP1 homeodomain (GST-tagged); test: gcPBM binding intensity (ln(normalized median fluorescence intensity)); higher = stronger DNA binding
How it was run: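 Binding intensity is defined as the maximum Masliner-normalised natural-log median intensity across replicate spots for either probe orientation. It was measured on an Agilent 4 × 180k array of primer-extended double-stranded 36-bp intergenic genomic probes and negative controls, to which GST-tagged P. falciparum DNA-binding domains made in E. coli were applied for 1 h in 1× PBS with 1% milk, 0.2 mg/ml BSA, 0.5% salmon testes DNA and 0.03% Triton X-100. Detection was by Alexa488 anti-GST antibody and scanning at 488 nm.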

Sequence | gcPBM binding intensity (ln)
TGATAATAAGCATACACACACACACCCAAAAAAAAA [CACACA_site721] | 6.84
TATTACATTATTCAAAAAAATTTATATGGTTATAGG [CACACA_negctrl_site1657] | 6.3
ATATATATATATATATATATATATATGATTATTACT [GTGCAC_negctrl_site109] | 9.43
AAATAAAAAAAAAAAAAAAATAACTTAAATGGGATA [TGCATGCA_negctrl_site595] | 6.06
AACTAAATGTTATTCGCACACGGAATTTATTTAATG [CACACA_site3664] | 6.7
TTTTTTTTTTCTTTTTTTCTCATGAAATTCTAAATG [CACACA_negctrl_site918] | 6.04
TAAACTATATTTACATGTACATATAATATTAAATAA [XGTACX_site3528] | 6.35
CCTATAAAACCATATACACACATATAAATAAAAAAA [CACACA_site7809] | 6.58
AATTATACTCACGTTACACACACACTATAAATATAT [CACACA_site7863] | 7.63
AAAAATTTGGCATACACACACACACGCACACGCACA [CACACA_site6422] | 7.37
ATTAATATGAATAAAACACACATATATAACTTGTAA [CACACA_site6989] | 6.44
AAAAAAAAATTAGGGGTGCCATTTGCTGCTGTGCTT [GTGCAC_site9913] | 6
TTTTGTATTTCTCACACACACATAAGTAAACAATAA [CACACA_site5105] | 6.78
TATATATGGGTACTAATTCCTTTAATTTCTTTAATT [CACACA_negctrl_site949] | 6.07
TAGTAAAAGATATACACACACCAAAAAATATAATTA [CACACA_site7142] | 7
AATTATATTCAAAATGGTACACACAATATTTAATTG [XGTACX_site5521] | 6.39
TAAACAGACATATAAACACACATATAAACAGACATA [CACACA_site7214] | 6.85
GTGTGGTGCTCGAGGAGTACAAACAATATGTAATTT [XGTACX_site4160] | 6.97
TTTATTTTATAATTCACACATATATACCTATTTTAT [CACACA_site5709] | 6.47
TTTTCTTCCTATTATTGTACATATAGTATTCTTTCA [XGTACX_site4428] | 7.39
AATATAAGTAATTATACACACTTAATATTTATATAC [CACACA_site7334] | 6.34
TAATAATAAACAACCACACACAAAAAAACAAAAAAA [CACACA_site3269] | 6.74
ATTTAATTATGTAAGTGTACTTTGGAATATAATATT [XGTACX_site3186] | 6.34
GTAGCACATATATATTGTACATAATATATACATTAT [XGTACX_site6354] | 6.76
